Laboratory results reported in the supplement of paper PMC12632987.
The full ranking holds about 4,500 sequences; the median of “median log2 fold change of GCK-ALFA target abundance (FLAG IP / Myc IP barcode read proportion)” is about 0.078, and the lowest 2% start at about -0.6. The list shows a part of the results.

B1: GBRAP_160_4415 (protein)
chain: SETIEEVEELLREMEELVLELVEEGERAEALAAARVGAGEILLYLDEDERVSEEAEEKVDAVLDALVAELEANADASPEEVRALLEAARKEVLEILKEHT
B2: GBRAP_184_5243 (protein)
chain: TVVDVEVVASTPEEAKAKLDAVRAAAEASGAKVNLFVTLKDATKELVETVFAQIKALRDAGLLERVHVEIDSFADEETKELAFDLAHEVGVDALAYNDEG
B3: GBRAP_43_5752 (protein)
chain: MEEIIEGAVDFATLAAEDPNISEEQKLKIAKDVFEIVADEGIKLPEELSKLTRALAKSLSLEQLKELLKHLKELAEKYPELKEDFEANAKIIEEAIKKKE
B4: GBRAP_128_3406 (protein)
chain: MNEEKVKEAKKLLDEILKSDKEEAKKLAKELEKLLLESDLETVKEVVEYVKEKADEFNEEQLAILMDAFHKVAKESDPEKAEAAVEAIGILGEKLYELEE
B5: GBRAP_57_6457 (protein)
chain: MSRLEKVEKHAEEARKALEEGAPVEEVLKEIRKMLELLDKETLLDIALILDPSTDMDLSKEELIEHIVEIAREAAETEGPERVRAIIDLIEGQAEMDAIE
B6: GBRAP_128_3247 (protein)
chain: GQEELLEKAKEIIDEIVEVDEEEARKLTEELLELSKELSPEAREKVAEYAEEKLEELTAEKLEVVADTIRERRGELDPETAALWAGVEIEALERAEELKE
B7: GBRAP_11_2804 (protein)
chain: EKEKLKELKKLLEEAAKLLEELLKKGVDDEELRKEIEKKLEEAAKLAKELGDKSIEKLVEIAKELLKKAKEDPENAEEYVKLAKATLRVAAGQVLLEIEE
B8: GBRAP_160_4705 (protein)
chain: SETAEELIKYVDEEFEKMKEEIKGESAEQRATIAEGAFGEIIMELSENPEASDELEDEVDKIGDELVATIKANPDLTDEEIEKLIDEAKEKIKEAIKKKL
B9: GBRAP_52_6306 (protein)
chain: SAARLRALAERALALMRAGDREGLRALFREIARTLSDEELLALARALAELAATLNEEEIDRFMEMLEIAEEVWEEEGVDPGVIAEALGIVVTALYAREQA
B10: GBRAP_139_3693 (protein)
chain: SEREEKLERARELTRRAVEEGRPALRELAEYLVSLSEEEQIAAAEEIAEVLLELPFDEAERLLEELIEILREEFGNEDLAEIVEAARNRALALIAVREEA
B11: GBRAP_160_4494 (protein)
chain: MEKLEEFKKEVEELIEEAKEAILEEDTDGKRGIARAYAGDIVQEALELGVVSEEEADELLELAEKGMEEIVAAKEKGPEAMEKAAKKLKEELFKFADKAA
B12: GBRAP_160_4116 (protein)
chain: KEELKEMLEDNAEDLEETIKIIEDLSPEEAGTLAIVTLGEILLDASEFGEELEEIEKLAEEAIEEIKKTAKEDPSKLKEVSKKKLEEIKEALEKKAKEVK
B13: GBRAP_166_4885 (protein)
chain: SKEEEIEKLLKEAKEYIEKIPSADEEEKQELVYEAAEALAKILELSPNDEEIHKKITELIKKLIEAVGDPTLVRGALGSNISMDEELIDKLEELLEEALK
B14: GBRAP_39_5702 (protein)
chain: EEEEEAERVFSYLEAVGAGYMYETGISLEEAVAEAKEIFKKKAEEHPELKELFEKLIEILETGDEETKIAVIGLAVLIKEGTPLEEIKEHMELLIKYFEK
B15: GBRAP_166_4986 (protein)
chain: MNEKIVKETKKKIDELFEKMKEANEEEKTELIIEIAEEIAKAKKKGISEEDLLELVRYALKKVKEAGESVKVAAGIIAEISEFDDEEIEKIDKIAEEVEA
B16: GBRAP_139_3745 (protein)
chain: SRTEAVRARVRELTARLEEDPEAAIAELVELLVSLDEELREAAARELGEELLAWPFDRAEAALDALIERLREEAGDEDGAEILEAERNRTLAQIAVREEA
B17: GBRAP_74_6569 (protein)
chain: SEELIEKIKEIAKNKSLKEFAEFILENIDKLDEETLLVAAKEFAEKIRKEKDTITEEELELAEEAAAALAEKAFQEDSSRETLEAVNRLIAEVVEAEKAL
B18: GBRAP_11_2766 (protein)
chain: KKEKLKEIAKLAEELAKLLEKILKEGVDNEELRKEAREKLEELKKLVEKYGDEAEKKLAEILEEELEKAEKDPENAEEYLKHALTTARVLAGQFLLKAEE
B19: GBRAP_160_4007 (protein)
chain: SEETEKLIKEIRELFEELKEEMEGLSPEERLTLARGTAGEIIQLALESPVVSDETEDKIAEILDEMIAELEANANAPLEVWKKIIEETEKKIEALLKESE
B20: GBRAP_95_7075 (protein)
chain: DEDLEELEILADTAIDLYDAGLKEQAARLMRAFIDEAEELGYKVKDKELAIRALEKFVELALEHFDLEEIEKALAIAKAIGAPQEIIDRLEKIAAEKKAR
B21: GBRAP_177_5018 (protein)
chain: MTLEELKAMLADPNVSLKEFAEALKEAAKNLSAEEVIELLAEGLQKKPLDEEGAKAAAELILEISRVHGISISEIIGYLIEHVEAEKVEKILEALAKLEE
B22: GBRAP_160_4307 (protein)
chain: MEELKKLKEEIKEIVEEAKKMLEGQSAEERKTIVKVTLGEILLLAFENPAISDELEDKIGEIADEAEEYLDENPDLSEEEIKELLEETAKKILELIDESE
B23: GBRAP_52_5991 (protein)
chain: MEEEAKEIAEKGLELMLAGKEEEAKALLEEAVKTKSEEFIKKVMEKLAEMAKKATPEEREAIVELAIMLEDIALEAGFDEAVADDGLARVAAAAYEALQA
B24: GBRAP_26_5450 (protein)
chain: LKEKLEEFREKLKELADELLDPETAALLKVEVDDIVALAELELEEANGDLEKMLEIVEEMVEDLKEALEDLGVPEEVKKKLMEKAEEEAEKIKKYLKEES
B25: GBRAP_42_5732 (protein)
chain: MTGVTLEIVVETREEAEKALAEAKEIVEEQLKKGDIVVIPEIAAPEEAKEIAEEMEELAEELRKKLDKISDWVVVAGPGEDIREAAEIAIDIAKEELEEE
B26: GBRAP_125_3152 (protein)
chain: SHDAAVAALAEIAARLGFDEGLVAEIAENAAAHSIKQTLYAIALAEDDERLADLVEQLSEAEVEAVVLEVAAWLAEHPDITPEELRARLLEVAEAALAAR
B27: GBRAP_184_5230 (protein)
chain: TVVNRSVEAETEEELIAKSEAVIAEAQAAGKEVNLHVIAKNVDLEGLRRVMAFLKAQKDAGKIKSATLVVEDELSEEELDELVALADEYGVRLVAALSEE
B28: GBRAP_128_3228 (protein)
chain: STEELKKKVRELLEKIKKADKEEAKKLAEELAKLIAESSVEEAEAMAEVVEELAPEMTEEQLDIMIEAFEEEARKLDSEVALELRDIAIIFGEELLEKME
B29: GBRAP_57_6468 (protein)
chain: MSPLEKVEKYVELAKKLIEEGAPKEEVLKEVRKALEELSHETLLDIALILDPSTSEDASREELIEHLLKLFEKALKEKGKEEAYKMLDLIEGEAEMEASE

What follows are binders tested against GABARAP, O95166 (assay: median log2 fold change of GCK-ALFA target abundance (FLAG IP / Myc IP barcode read proportion) (log2 ratio); each designed protein is fused to an ALFA-tag nanobody in HEK293 cells to bring the named protein to FLAG-tagged glucokinase (GCK); Myc marks an untargeted standard; higher = target protein stabilised (more abundant)). Conditions: target protein: 3xFLAG-MCP-GCK-ALFA reporter; HEK293 landing pad (RPLP).
GABARAP, O95166, sequence (O95166 whole entry, the tested form may be a part): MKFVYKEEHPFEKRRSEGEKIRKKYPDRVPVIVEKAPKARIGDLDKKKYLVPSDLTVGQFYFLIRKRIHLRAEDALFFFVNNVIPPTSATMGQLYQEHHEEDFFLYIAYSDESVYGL
How it was run: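 HEK293 landing-pad cells received a recombined binder library fused to the ALFA nanobody and were induced with 2 μg mL^−1 doxycycline, then transfected with a plasmid encoding a FLAG-tagged target and a Myc-tagged standard. Lysates were collected after 48 h for anti-FLAG and anti-Myc immunoprecipitation, and the circular RNA barcodes were reverse transcribed, amplified and sequenced. Target abundance for each binder is the median log2 ratio of FLAG to Myc barcode read proportions. Barcodes had to reach a proportion of at least 10^−7 in both replicates, each binder needed at least 3 barcodes per replicate, a pseudocount of 10^−6 was applied, and the two replicates were pooled.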

Binder | median log2 fold change
B1 | -0.111
B2 | 0.225
B3 | 0.108
B4 | 0.39
B5 | -0.414
B6 | 0.147
B7 | -0.597
B8 | 0.417
B9 | -0.273
B10 | 0.299
B11 | -0.0541
B12 | -0.151
B13 | 0.141
B14 | 0.198
B15 | 0.481
B16 | 0.186
B17 | -0.176
B18 | 0.0217
B19 | 0.00862
B20 | 0.0532
B21 | 0.218
B22 | -0.414
B23 | -0.0473
B24 | -0.413
B25 | 0.0986
B26 | 0.0341
B27 | 0.116
B28 | -0.241
B29 | 0.291
